# Experimental data taken from publication PMC12002121.
# The chains behind the UniProt entries cited, without tags or fusion partners. Where a name states a change or a piece, a line headed by the entry shows the natural chain unless it says otherwise. Residues count along the entry.
# UniProt Q15116, residues 25-288: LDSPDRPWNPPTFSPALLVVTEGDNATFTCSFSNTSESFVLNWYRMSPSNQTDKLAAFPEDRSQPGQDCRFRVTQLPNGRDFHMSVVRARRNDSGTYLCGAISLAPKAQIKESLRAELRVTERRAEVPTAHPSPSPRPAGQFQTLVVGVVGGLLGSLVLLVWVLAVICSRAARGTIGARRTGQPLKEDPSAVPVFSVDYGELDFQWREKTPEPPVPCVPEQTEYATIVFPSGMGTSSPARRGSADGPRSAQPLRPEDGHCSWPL
# UniProt Q9UPU5: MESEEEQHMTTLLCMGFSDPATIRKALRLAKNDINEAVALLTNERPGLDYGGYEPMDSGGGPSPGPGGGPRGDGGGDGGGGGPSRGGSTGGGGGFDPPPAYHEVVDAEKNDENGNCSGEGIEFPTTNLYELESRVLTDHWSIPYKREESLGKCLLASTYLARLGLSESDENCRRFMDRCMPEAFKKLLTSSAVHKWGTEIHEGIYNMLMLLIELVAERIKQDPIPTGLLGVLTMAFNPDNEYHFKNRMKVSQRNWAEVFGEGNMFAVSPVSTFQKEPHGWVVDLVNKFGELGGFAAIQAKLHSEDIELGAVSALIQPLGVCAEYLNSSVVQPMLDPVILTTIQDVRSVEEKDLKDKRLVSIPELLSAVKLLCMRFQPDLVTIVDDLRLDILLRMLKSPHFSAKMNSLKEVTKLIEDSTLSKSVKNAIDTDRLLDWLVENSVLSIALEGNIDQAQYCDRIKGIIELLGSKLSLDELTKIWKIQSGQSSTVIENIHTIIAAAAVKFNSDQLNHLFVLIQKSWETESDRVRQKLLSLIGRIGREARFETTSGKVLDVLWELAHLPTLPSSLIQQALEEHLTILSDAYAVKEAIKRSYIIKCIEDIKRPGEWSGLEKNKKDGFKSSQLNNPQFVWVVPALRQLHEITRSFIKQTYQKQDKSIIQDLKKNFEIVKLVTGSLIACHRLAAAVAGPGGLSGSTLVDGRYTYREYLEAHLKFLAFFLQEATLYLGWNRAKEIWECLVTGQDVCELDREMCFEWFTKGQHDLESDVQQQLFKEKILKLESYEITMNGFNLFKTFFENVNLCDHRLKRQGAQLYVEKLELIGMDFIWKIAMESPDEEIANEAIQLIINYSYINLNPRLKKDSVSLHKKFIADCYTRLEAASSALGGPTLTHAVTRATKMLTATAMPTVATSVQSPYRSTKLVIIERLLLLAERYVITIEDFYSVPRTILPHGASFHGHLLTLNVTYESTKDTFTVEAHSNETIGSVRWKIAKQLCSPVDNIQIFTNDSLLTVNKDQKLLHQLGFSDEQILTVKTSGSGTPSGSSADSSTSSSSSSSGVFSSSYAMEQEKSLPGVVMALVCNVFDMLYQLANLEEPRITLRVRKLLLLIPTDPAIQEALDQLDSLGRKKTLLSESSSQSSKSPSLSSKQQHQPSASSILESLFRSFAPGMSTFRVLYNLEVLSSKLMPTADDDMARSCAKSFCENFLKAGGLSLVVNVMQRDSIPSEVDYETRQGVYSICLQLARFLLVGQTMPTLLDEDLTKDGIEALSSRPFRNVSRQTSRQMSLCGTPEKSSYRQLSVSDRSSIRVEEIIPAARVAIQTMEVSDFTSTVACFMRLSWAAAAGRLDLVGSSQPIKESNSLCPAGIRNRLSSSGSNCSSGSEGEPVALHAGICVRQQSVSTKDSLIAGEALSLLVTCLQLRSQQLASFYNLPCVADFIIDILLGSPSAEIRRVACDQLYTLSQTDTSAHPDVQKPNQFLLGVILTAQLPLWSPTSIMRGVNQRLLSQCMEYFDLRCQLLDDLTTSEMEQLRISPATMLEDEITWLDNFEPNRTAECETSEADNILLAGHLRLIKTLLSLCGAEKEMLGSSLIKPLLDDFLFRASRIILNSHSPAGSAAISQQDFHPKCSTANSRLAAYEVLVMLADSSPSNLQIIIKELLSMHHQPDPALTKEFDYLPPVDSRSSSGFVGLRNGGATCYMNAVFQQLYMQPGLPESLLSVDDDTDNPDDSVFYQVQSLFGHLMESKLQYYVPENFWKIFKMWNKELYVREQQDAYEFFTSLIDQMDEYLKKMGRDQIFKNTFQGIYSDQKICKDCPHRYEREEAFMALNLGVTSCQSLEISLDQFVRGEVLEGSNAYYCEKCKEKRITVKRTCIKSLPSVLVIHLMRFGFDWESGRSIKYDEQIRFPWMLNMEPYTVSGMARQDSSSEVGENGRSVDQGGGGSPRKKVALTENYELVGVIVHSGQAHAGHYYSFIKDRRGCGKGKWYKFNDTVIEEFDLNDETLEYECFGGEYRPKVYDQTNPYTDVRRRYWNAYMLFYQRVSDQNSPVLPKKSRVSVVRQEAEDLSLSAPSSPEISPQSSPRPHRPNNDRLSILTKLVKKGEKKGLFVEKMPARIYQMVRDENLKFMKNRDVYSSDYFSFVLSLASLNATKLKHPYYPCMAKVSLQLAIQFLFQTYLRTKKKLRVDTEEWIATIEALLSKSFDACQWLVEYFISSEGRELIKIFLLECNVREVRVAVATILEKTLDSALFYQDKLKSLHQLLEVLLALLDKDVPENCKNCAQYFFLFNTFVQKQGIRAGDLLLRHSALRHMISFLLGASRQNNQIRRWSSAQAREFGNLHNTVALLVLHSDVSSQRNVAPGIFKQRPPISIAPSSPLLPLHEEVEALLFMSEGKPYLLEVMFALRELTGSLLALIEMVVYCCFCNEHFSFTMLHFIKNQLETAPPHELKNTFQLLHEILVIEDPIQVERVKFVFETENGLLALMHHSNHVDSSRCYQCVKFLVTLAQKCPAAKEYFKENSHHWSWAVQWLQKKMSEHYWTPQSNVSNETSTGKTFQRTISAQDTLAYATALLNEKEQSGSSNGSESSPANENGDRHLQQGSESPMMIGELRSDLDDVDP
# No constants are given. Whether binding was seen depends on the method and setting. Binding seen in cells or lysates may run through a third protein. Some binding calls cover weakened binding; strength is not graded here.
# Tests used:
# [1] = target: GFP-PD-1 (WT-PD-1) (UniProt Q15116); assay: co-IP; HEK293 cells transfected with GFP-PD-1 (WT-PD-1) and USP24 constructs; IP of GFP-PD-1, Western blot (fig. S3B, Fig. 3E)
# [2] = target: ubiquitin-specific peptidase 24 (USP24), endogenous (human (endogenous in PBMCs and Jurkat T cells)) (UniProt Q9UPU5); assay: co-IP; IP of endogenous USP24 (PBMCs stimulated with anti-CD3/CD28; Jurkat T cells stimulated with PMA/ionomycin 6 h) or of endogenous PD-1 (Jurkat T cells), Western blot; IP buffer 50 mM tris-HCl pH 7.5, 150 mM NaCl, 1% NP-40, 5 mM EDTA, 4°C; IL-6 treatment increased the interaction (fig. S4D)
# [3] = target: programmed cell death-1 (PD-1), endogenous (human (endogenous in PBMCs and Jurkat T cells)) (UniProt Q15116); assay: as above
# [4] = target: programmed cell death-1 (PD-1), endogenous (human (endogenous in PBMCs and Jurkat T cells)) (UniProt Q15116); assay: co-IP; Jurkat T cells ectopically transduced with GFP-USP24 (fig. S3A); IP-Western
substance,measurement,setting,value
"USP24 C-terminal deletion construct (USP24-ΔC, amino acids 1 to 2050) (from UniProt Q9UPU5 1-2050) (domain or fragment)",binding,[1],no binding
"programmed cell death-1 (PD-1), endogenous (from UniProt Q15116 25-288) (receptor)",binding,[2],binds
"ubiquitin-specific peptidase 24 (USP24), endogenous (from UniProt Q9UPU5 1-2620) (enzyme)",binding,[3],binds
"GFP-USP24 (wild-type USP24, USP24-WT) (from UniProt Q9UPU5 1-2620) (enzyme)",binding,[1],binds
same,binding,[4],binds
